The supplement of paper PMC4723716
± gives the standard deviation of the averaged measurements. Over roughly 3,600 compounds, “viability index relative to DMSO control” has its median near 0.81; the lowest 2% begin near 0.13. The list shows a part of the results.

system: Plasmodium falciparum NF54 stage V gametocytes; assay: viability index relative to DMSO control (fraction); higher = less gametocyte killing; conditions: 1.25 µM, incubation time: 72 h
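Also: 384-well serum-free SaLSSA: MitoTracker Red CMXRos staining with saponin lysis, high-content imaging, treated-well particle count divided by plate-mean count of DMSO wells.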

| SMILES | viability index |
| --- | --- |
| CC[n+]1c(C=CC=C2N(C)c3ccccc3C2(C)C)sc2ccccc21 | 0.307 |
| O=C(Nc1ccc(-c2nc3ccc(NC(=O)c4cccc([N+](=O)[O-])c4)cc3[nH]2)cc1)c1cccc([N+](=O)[O-])c1 | 1.57 |
| CC(C)c1nc(N2CCN(C(=O)Nc3ccccc3)CC2)c(C#N)c2c1COC(C)(C)C2 | 0.0954 |
| COc1cc2c(N3CCOCC3)cc(O)c(CC(=O)Nc3ccccc3)c2cc1OC | 0.8 |
| COc1cccc(-c2ccc(O)c(CNC3CCCCCCC3)c2)n1 | 0.452 |
| CCOc1ccccc1C(=O)NC(Nc1sc2c(c1C(N)=O)CCCC2)(C(F)(F)F)C(F)(F)F | 0.904 |
| CCOC(=O)c1c(-c2ccc3c(c2)OCO3)nc2cc(OC)ccc2c1O | 0.632 |
| Cc1cccc(CCNc2cc(C)nc3nc(C)nn23)c1 | 0.75 |
| Cc1cc2ncn(N=Cc3cccnc3)c2cc1C | 0.938 |
| CN(Cc1ccccc1)c1nc2c(c(=O)[nH]c(=O)n2C)n1CCCSc1ncccn1 | 0.83 |
| CCN1C(=Cc2sc3ccc(Cl)cc3[n+]2CC)C=Cc2cc(OC)ccc21 | 0.846 |
| O=C(O)CC(c1ccc2c(c1)OCO2)N1CCS(=O)(=O)CC1 (configuration not stated) | 0.945 |
| CCCNC(=O)c1ccc(OC2CCN(CC3CCCCC3)CC2)c(Cl)c1 | 0.708 |
| CCCN(CCC)CCCNc1ccc(C(=O)Nc2cccc(OC)c2)cc1[N+](=O)[O-] | 0.793 |
| COc1ccc(C2CC(=O)C3=C(C2)NC(C)=C(C(=O)OC(C)C)C3c2ccc(Cl)cc2Cl)cc1OC (configuration not stated) | 0.328 |
| Cc1nc(-c2nc3c(s2)CN(C(=O)c2ccncc2)CC3)cs1 | 0.78 |
| COc1ccc(Cn2nnnc2CN2CCc3ccccc3C2)cc1 | 0.768 |
| COc1ccc([N+](=O)[O-])cc1-c1ccc(C=C(C#N)c2nn(CCO)c(N)c2C#N)o1 | 0.598 |
| CCOC(=O)c1cccc(OC(=O)c2ccccc2)c1 | 1.03 |
| CCCOc1ncnc2c1sc1nc3c(cc12)COC(C)(C)C3 | 0.902 |
| COc1ccc(N=Nc2nc3ccc(Br)cc3n2C)cc1 | 0.358 |
| CCOC(=O)c1[nH]nc(C(=O)c2ccccc2)c1-c1ccccc1 | 1.27 |
| O=C1C(=O)N(Cc2cccc3ccccc23)c2ccc(Br)cc21 | 0.897 |

| SMILES | viability index |
| --- | --- |
| CCC(C)NC(=O)c1nn(-c2ccc(OC)cc2)c(=O)c2ccccc12 (configuration not stated) | 0.871 |
| COC(=O)C1CN(Cc2ccccc2)CCC1=O (configuration not stated) | 0.872 |
| CC(C)(C)c1ccc(C(=O)Nc2ccc(NC(=O)c3ccc(-c4ccc([N+](=O)[O-])cc4)o3)cc2)cc1 | 1.04 |
| COCCOC(=O)C1=C(C)NC2=C(C(=O)CC(c3ccc(OC)c(OC)c3)C2)C1c1ccccc1Cl (configuration not stated) | 0.544 |
| COc1cc(CN2CCC3(CC2)CC3C(=O)NCCc2ccccc2OC)ccc1O (configuration not stated) | 1.38 |
| COC(=O)c1ccc(C2C3=C(O)CC(c4ccco4)CC3=Nc3ccccc3N2C(=O)c2ccccc2)cc1 (configuration not stated) | 0.62 |
| CN1CCc2c(sc3c2C(=O)NC(c2ccc(O)cc2)N3)C1 (configuration not stated) | 0.753 |
| CCC(C(=O)Nc1sccc1C#N)c1ccccc1 (configuration not stated) | 1.02 |
| CCOC(=O)C1=C(C)NC2=C(C(=O)CC(c3ccc(OC)c(OC)c3)C2)C1c1ccc(Br)cc1 (configuration not stated) | 0.367 |
| O=C(Nc1ccc(SC(F)(F)F)cc1)Nc1cccnc1N1CCC(C(F)(F)F)CC1 | 1.02 ± 0.065 |
| Cc1ccc(C)c(CN2C(=O)c3ccccc3S(=O)(=O)c3ccc(C(=O)NCCCN4CCCC(C)C4)cc32)c1 (configuration not stated) | 0.96 |
| COc1cc(NCCCC(C)N)c2ncccc2c1 (configuration not stated) | 0.627 |
| COc1ccc(NC2=CC(=O)CC(c3ccccc3)C2)c(OC)c1 (configuration not stated) | 0.816 |
| COc1ccc(S(=O)(=O)N=C2C=C(Nc3ccccc3OC)C(=O)c3ccccc32)cc1 | 0.0579 |
| CCOC(=O)c1ccc(Nc2nc(N)c3cc(OC)c(OC)cc3n2)cc1 | 0.329 |
| NNC(=O)CNC(c1ccccc1)c1cc(Br)ccc1NC(=O)c1ccccc1Br (configuration not stated) | 0.955 |
| CCC(CC)CN1CCC(O)(c2ccc3oc(C(=O)Nc4ccc5c(c4)OCO5)cc3c2)CC1 | 0.779 |
| COc1ccc(C2CC(=O)C3=C(C2)NC(C)=C(C(=O)OC(C)C)C3c2cccc(Cl)c2Cl)cc1OC (configuration not stated) | 0.425 |
| CN(C)CC(C)(C)CNCc1cc(-c2ccccc2)ccc1O | 0.596 |
| Cc1ccc(NC(=O)c2cc(C(=O)c3cc(Cl)ccc3O)cn(-c3ccc(C)c(C)c3)c2=O)cc1C | 0.767 |
| Cc1ccc(Cn2c(C)c3cnn(CC(=O)O)c(=O)c3c2C)cc1 | 1.51 |
| CCCCn1c(=N)c(C(=O)NC(C)c2ccccc2)cc2c(=O)n3cccc(C)c3nc21 (configuration not stated) | 0.802 |
| Cc1cc2nc(NC(=N)N)nc(C)c2cc1C | 0.718 |

| SMILES | viability index |
| --- | --- |
| COC(=O)c1ccc(Nc2nc(NCc3ccco3)c3ccccc3n2)cc1 | 0.714 |
| N#Cc1cn(-c2ccc(Cl)cc2)c(=O)n(Cc2c(Cl)cccc2Cl)c1=O | 1.08 |
| Cc1ccc(S(=O)(=O)N=C(NS(=O)(=O)c2ccc(C)cc2)c2ccccc2)cc1 | 0.943 |
| CCN(CC)c1ccc(NCc2ccc3c(c2)OCO3)cc1 | 1 |
| CCCCCn1c(C)[n+](CCCC)c2cc(Cl)c(Cl)cc21 | 0.746 |
| FC(F)(F)COc1ccc(OCC(F)(F)F)c(-c2ncnn2-c2ccccc2)c1 | 0.755 |
| CCCn1c(SCC(=O)Nc2ccccc2Cl)nc2c1c(=O)n(C)c(=O)n2C | 0.849 |
| O=C(Nc1ccccc1)C1Cc2ccccc2CN1S(=O)(=O)c1ccc(F)cc1 (configuration not stated) | 0.954 |
| Cc1ccc(-c2cc3c(nn2)-c2ccccc2C3=O)cc1 | 0.65 |
| Cc1nc2c(-c3ccccc3)c(C)nn2c(C)c1CC(=O)NCc1ccccn1 | 1.24 |
| CCN1CCN(C(=O)Nc2ccc(Cc3ccc(NC(=O)N4CCN(CC)CC4)cc3)cc2)CC1 | 0.819 |
| CN(C)CCNc1ncnc2c1[nH]c1ccc(Br)cc12 | 0.776 |
| COc1cccc(NC(=O)c2cccc3c(=O)c4c([nH]c23)CCCC4)c1 | 0.94 |
| CN1C=CC(=Cc2sc3ccccc3[n+]2C)C=C1 | 0.788 |
| CCCOC(=O)C1=C(C)NC2=C(C(=O)CC(c3ccc(OC)cc3)C2)C1c1ccccc1F (configuration not stated) | 0.421 |
| CN1CCN(c2ccc(Nc3c4ccccc4nc4ccccc34)cc2)CC1 | 0.377 |
| CCOC(=O)c1c(N)n(-c2ccc(NC(=O)c3cccc([N+](=O)[O-])c3)cc2)c2nc3ccccc3nc12 | 1.18 |
| CC1CCN(c2nncc3ccccc23)CC1 | 0.777 |
| c1ccc(-c2cccc(-c3ccccn3)n2)nc1 | 0.904 |
| O=C(NCCCN1CCCCC1)c1ccc2c(c1)sc1nc(-c3ccc(F)cc3)cn12 | 0.96 |
| COC(=O)c1ccccc1NC(=O)CSc1nc2ccsc2c(=O)n1CCN1CCCC1 | 1.12 |
| Cn1nc(C(=O)N2CCCCCC2)c2c1CCC(NCC(C)(C)N1CCOCC1)C2 (configuration not stated) | 1.15 |
| Cn1c(SCC(=O)Nc2cccc(F)c2)nc2c(c1=O)SCC2 | 0.843 |

| SMILES | viability index |
| --- | --- |
| C=CCN1C=CC(=Cc2sc3ccccc3[n+]2C)c2ccccc21 | 1.07 |
| O=c1[nH]c2cc(Cl)c(Br)nc2[nH]1 | 0.902 |
| Cc1ccc2nc(C)cc(NCCN(C)C)c2c1 | 0.895 |
| Cc1cc(C)c(CSc2ncnc3[nH]cnc23)c(C)c1 | 1.37 |
| CC(Oc1ccc(Cl)cc1Cl)c1nc(-c2ccc(NC(=O)c3ccco3)cc2)no1 (configuration not stated) | 0.759 |
| COc1cccc(CNCCCCCCCCCCCCNCc2cccc(OC)c2O)c1O | 0.723 |
| COc1ccc(CNCc2cc(-c3ccnc4cc(Cl)ccc34)ccc2O)c(OC)c1 | 0.75 |
| CCCCOc1ccc(C(=O)Nc2c3c(nn2-c2ccc(C)cc2C)CSC3)cc1 | 0.661 |
| Cc1ccc2ccc(C(Nc3ccccn3)c3ccc(Br)cc3)c(O)c2n1 (configuration not stated) | 0.942 |
| CC(CCc1ccccc1)N1CC(c2cccc([N+](=O)[O-])c2)OC1=S (configuration not stated) | 0.776 |
| CC(C)OC(=O)NC(Nc1ccccc1)C(Cl)(Cl)Cl (configuration not stated) | 1.09 |
| COc1ccc2nc(NC(=O)c3ccc(C#N)cc3)sc2c1 | 0.653 |
| COc1ccc(C(=O)Nc2ccc3nsnc3c2)cc1OC | 0.678 |
| COc1ccc(NC(=O)Cn2c(-c3ccc(OC)cc3)cn(-c3ccc(C)cc3)c2=O)cc1 | 0.815 |
| CCOC(=O)C(Cc1ccc(O)cc1)NC1=CC(=O)C(=O)c2ccccc21 (configuration not stated) | 0.799 |
| CC(C)CC[n+]1ccccc1C=Cc1ccc(N(C)C)cc1 | 0.634 |
| O=c1c2[nH]c3ccccc3c2ncn1Cc1ccc2c(c1)OCO2 | 0.991 |
| O=C1CC(c2ccccc2)CC2=C1C(c1ccccc1[N+](=O)[O-])Nc1ccccc1N2 (configuration not stated) | 0.849 |
| Cc1nnc(SCC(=O)NCc2ccco2)n1-c1ccc(F)cc1 | 0.837 |
| CCCn1c(=N)c(C(=O)NC(C)c2ccccc2)cc2c(=O)n3cccc(C)c3nc21 (configuration not stated) | 0.868 |
| Cc1ccc(Nc2cc(C)nc(NCc3ccccc3)n2)c(C)c1 | 0.707 |
| Cc1nc(N2CCN(C)CC2)c2c(C)c(C(=O)NCCN(C)C)sc2n1 | 0.851 |
| COc1ccc(C(c2ccc(N(C)C)cc2)c2ccc(N(C)C)cc2)cc1 | 0.333 |
